± gives the standard deviation of the averaged measurements. Whole data set: some 33,000 sequences, median “E-score (dimensionless, -0.5 to 0.5)” near -0.046, cut for the highest 2% near 0.36. The list shows a part of the results.

The subject of the assay is T1, SpTbr T-box DNA-binding domain (GST fusion).
T1 sequence: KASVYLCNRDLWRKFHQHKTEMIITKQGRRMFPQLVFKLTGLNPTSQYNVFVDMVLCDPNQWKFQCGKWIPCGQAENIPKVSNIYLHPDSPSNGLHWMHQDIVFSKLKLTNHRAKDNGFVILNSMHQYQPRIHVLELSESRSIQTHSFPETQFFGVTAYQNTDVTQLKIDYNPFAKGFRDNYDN
As to the kind of experiment: PBM E-score of 8-mer (E-score (dimensionless, -0.5 to 0.5)); Tbr is Tbrain of the sea star Patiria miniata (Pm) or the sea urchin Strongylocentrotus purpuratus (Sp); higher = stronger binding preference; most listed sequences are background and not binding sites. The settings on record: the construct has about 5 more residues each side. The method, boiled down: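 Expression of GST-fused Tbr T-box DNA-binding domains, each holding the full T-box plus roughly five flanking residues, was carried out in BL21 E. coli at 20 °C, with purification by glutathione affinity chromatography. Universal Agilent arrays made double-stranded by primer extension were incubated with the protein at 200 nM in PBS (pH 7.5), then scanned and quantified. All ungapped 8-mers were scored from probe intensities, and each received an enrichment E-score from the Universal PBM Analysis Suite, averaged over duplicate arrays.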
Turning to CTGCTTGA, the “PBM E-score of 8-mer” value was -0.163 ± 0.076.
The figure for AGCTAACT is -0.27 ± 0.067; for ACAGTATC it is 0.113 ± 0.0084.
In the case of ACGCGCCA, the “PBM E-score of 8-mer” value came out at 0.201 ± 0.019.
The figure for AGTCAAGC is -0.172 ± 0.068; for CAAAGGAC it is -0.12 ± 0.056; for ATTTTTAA it is -0.188 ± 0.086.
As to CGATGGTA, the “PBM E-score of 8-mer” value is -0.0517 ± 0.023.
The figure for GCAACACC is 0.439 ± 0.0069; for CCACCCAA it is 0.0907 ± 0.022.
As to AATAACGG, the “PBM E-score of 8-mer” value was found to be 0.0267 ± 0.066.
On to GACGATGC, for which the “PBM E-score of 8-mer” value is -0.0692 ± 0.033.
TCGCGAGA: the “PBM E-score of 8-mer” value stood at 0.367 ± 0.01.
The figure for AGCTACGG is -0.266 ± 0.021; for CTCCTGTC it is -0.0147 ± 0.043; for ATAAGGAG it is -0.17 ± 0.13.
The figure for GCCGTTAC is -0.094 ± 0.051; for CTCCATCA it is 0.106 ± 0.12; for GGTGGCAC it is 0.3544 ± 0.0029.
AATGGGCA: the “PBM E-score of 8-mer” value is -0.298 ± 0.029.
For the sequence CGAAACCG, the “PBM E-score of 8-mer” value worked out at 0.0826 ± 0.038.
In the case of CAACTATC it was 0.0911 ± 0.023; in that of GCCACAGA, -0.0181 ± 0.047.
Consider CAACAAGG, for which the “PBM E-score of 8-mer” value is 0.0674 ± 0.0062.
With CTGTGCAC, the “PBM E-score of 8-mer” value was determined as 0.15 ± 0.047.
With AAAAATGA, the “PBM E-score of 8-mer” value was -0.118 ± 0.086.
In the case of AAGGGCCA, the “PBM E-score of 8-mer” value was -0.259 ± 0.0051.
As to CGCGCAAA, the “PBM E-score of 8-mer” value was found to be 0.193 ± 0.03.
The figure for TCCACTAA is 0.0302 ± 0.044; for ACTCCTAA it is -0.22 ± 0.069.
In the case of ACTGCGTA it was -0.0821 ± 0.082.
Take ATAACATA: the “PBM E-score of 8-mer” value amounted to 0.0324 ± 0.023.
As for CGCCCGAG, the “PBM E-score of 8-mer” value turned out to be 0.142 ± 0.038.
Regarding CTGGGTAA, the “PBM E-score of 8-mer” value was -0.0932 ± 0.021.
The figure for AGCTTTCA is -0.132 ± 0.045; for ACCCCGAT it is -0.0152 ± 0.031; for AATGGCCA it is -0.211 ± 0.029.
In the case of AGCGTCGA it was -0.0175 ± 0.056.
For the sequence CAAACAGC, the “PBM E-score of 8-mer” value stood at 0.105 ± 0.062.
In the case of GGTTGGAC it was -0.1 ± 0.047; in that of CGACGGTC, -0.0771 ± 0.066.
Turning to AAGTGCTA, the “PBM E-score of 8-mer” value was determined as 0.419 ± 0.014.
In the case of TGGCTACA it was -0.132 ± 0.023; in that of CAAACAAA, -0.0454 ± 0.038; in that of AAGGGAGA, -0.13 ± 0.033.
Regarding CACCTTGC, the “PBM E-score of 8-mer” value came out at 0.389 ± 0.013.
Take GCTGCATA: the “PBM E-score of 8-mer” value was -0.15 ± 0.0083.
Turning to GATCATGA, the “PBM E-score of 8-mer” value is -0.161 ± 0.012.
In the case of CTCATCAC it was 0.238 ± 0.031; in that of AATGTGCT, 0.13 ± 0.054; in that of TCCGGTCA, 0.0538 ± 0.015.
In the case of ACGCTTTC it was 0.105 ± 0.012; in that of CTGGCATC, -0.059 ± 0.0047; in that of AGGGCCTA, -0.283 ± 0.053.
In the case of AATCCGCA it was 0.0155 ± 0.0028.
Consider AAGGTATC, for which the “PBM E-score of 8-mer” value is 0.063 ± 0.032.
The figure for CTGGCGTA is -0.0113 ± 0.021; for CTATGGTC it is -0.162 ± 0.013; for ATCGGGTG it is 0.176 ± 0.035.
In the case of CTGCCCCA it was 0.0148 ± 0.061; in that of ATACACGC, 0.0637 ± 0.049; in that of GAAACTAA, 0.0489 ± 0.052.
In the case of GCTATGAA it was -0.259 ± 0.0066; in that of AACACAAT, 0.183 ± 0.018.
For ATTGTACG, the “PBM E-score of 8-mer” value was found to be 0.0167 ± 0.03.
As for GTCCAGTA, the “PBM E-score of 8-mer” value is -0.25 ± 0.006.
In the case of CACTACTG it was 0.0811 ± 0.066; in that of GAAGGCCA, -0.1674 ± 0.0011.
For the sequence AATAACAA, the “PBM E-score of 8-mer” value came out at 0.0974 ± 0.1.
The figure for CCAAGCCA is -0.264 ± 0.0072; for AAGAAAAG it is -0.304 ± 0.018; for TCGTACAA it is -0.071 ± 0.046.
The figure for GGGGCGTA is -0.0823 ± 0.049.
The figure for CACTACCG is 0.157 ± 0.017; for CCGGCTGA it is -0.175 ± 0.06; for ACTTTGTC it is 0.206 ± 0.0032.
CCAGCTCA: the “PBM E-score of 8-mer” value came to 0.0203 ± 0.044.
In the case of CCCAGATA it was -0.114 ± 0.0093; in that of ATTGACCG, -0.2 ± 0.011; in that of ATCTTATA, -0.142 ± 0.01.
In the case of ACCATTCA it was 0.0676 ± 0.0009.
With CAACGCGG, the “PBM E-score of 8-mer” value is 0.116 ± 0.017.
In the case of ACAGCCGC it was 0.0983 ± 0.015.
Consider TCGACACA, for which the “PBM E-score of 8-mer” value came to 0.315 ± 0.032.
The figure for ATAGAGTA is -0.143 ± 0.084; for ACAAGCCG it is 0.0757 ± 0.024.

These data come from the supplement of paper PMC4166925.
